According to article PMC4336329 (PLoS ONE, 2015):
The whole screen tested about 310,000 compounds, of which about 14,000 (4.5%) showed an effect of 50% or more. Effects have a minus sign here. The list shows a part of the results.

These compounds were tested against human ether-à-go-go-related gene (hERG) potassium channel (human, UniProt Q12809) (assay: primary screen, population patch clamp on CHO cells stably expressing hERG).
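Note: peak tail current of the secondary pulse compared with the same well before compound.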

Chain of human ether-à-go-go-related gene (hERG) potassium channel (Q12809 whole entry, looked up): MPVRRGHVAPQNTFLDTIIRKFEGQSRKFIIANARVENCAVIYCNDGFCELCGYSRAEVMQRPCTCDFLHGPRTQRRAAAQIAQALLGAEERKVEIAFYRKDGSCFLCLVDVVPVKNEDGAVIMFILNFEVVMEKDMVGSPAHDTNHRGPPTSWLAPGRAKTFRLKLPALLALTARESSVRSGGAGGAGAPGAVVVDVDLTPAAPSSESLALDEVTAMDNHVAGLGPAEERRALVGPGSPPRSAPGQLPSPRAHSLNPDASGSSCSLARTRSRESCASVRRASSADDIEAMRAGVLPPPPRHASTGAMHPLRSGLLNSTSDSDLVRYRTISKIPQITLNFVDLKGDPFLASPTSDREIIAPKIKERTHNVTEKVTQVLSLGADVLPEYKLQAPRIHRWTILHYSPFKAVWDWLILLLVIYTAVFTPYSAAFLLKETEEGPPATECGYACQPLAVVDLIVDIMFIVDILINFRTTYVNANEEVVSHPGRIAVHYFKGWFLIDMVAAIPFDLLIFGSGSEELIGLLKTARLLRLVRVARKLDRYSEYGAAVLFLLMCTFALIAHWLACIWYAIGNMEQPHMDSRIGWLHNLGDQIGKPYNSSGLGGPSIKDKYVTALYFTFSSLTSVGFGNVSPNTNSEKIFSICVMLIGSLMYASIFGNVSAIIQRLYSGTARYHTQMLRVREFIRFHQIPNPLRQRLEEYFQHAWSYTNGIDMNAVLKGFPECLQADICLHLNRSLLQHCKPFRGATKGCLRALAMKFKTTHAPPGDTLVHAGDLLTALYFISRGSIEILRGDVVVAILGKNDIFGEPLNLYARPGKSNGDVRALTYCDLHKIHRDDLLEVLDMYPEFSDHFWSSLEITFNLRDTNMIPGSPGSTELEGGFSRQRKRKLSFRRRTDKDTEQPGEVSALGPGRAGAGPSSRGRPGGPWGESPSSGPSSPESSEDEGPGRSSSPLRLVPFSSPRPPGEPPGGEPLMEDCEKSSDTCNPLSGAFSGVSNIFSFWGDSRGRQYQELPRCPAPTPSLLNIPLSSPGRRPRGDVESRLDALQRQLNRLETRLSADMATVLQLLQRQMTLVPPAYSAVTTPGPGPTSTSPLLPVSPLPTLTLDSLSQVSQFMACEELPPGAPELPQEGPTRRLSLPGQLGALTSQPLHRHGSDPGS

| Structure (SMILES) | hERG current change (%, negative = inhibition) at 10uM [%] |
| --- | --- |
| Cc1ccn(CC(=O)O)c(=O)c1 | -4.04 |
| Cc1c(NS(=O)(=O)c2ccc3c(c2)n(C)c(=O)n3C)c(=O)n(-c2ccccc2)n1C | 10.1 |
| COc1ccc(C(CCNCc2ccccc2)c2ccc(F)cc2)cc1 (stereo not drawn) | -66.7 |
| Cc1ccc(Nc2nc(C)cc(C)n2)c(Br)c1 | -14.5 |
| CC(C(=O)OCC(=O)Nc1ccc2c(c1)OCO2)N1C(=O)c2ccccc2C1=O (stereo not drawn) | -12.4 |
| O=[N+]([O-])c1ccc(Cl)c(S(=O)(=O)n2ccnc2)c1 | 5.1 |
| COc1ccc(NC(=O)C2C3C=CC(C3)C2C(=O)O)cc1 (stereo not drawn) | -2.32 |
| COC(=O)COc1c(Cl)cc(Cl)c2ccc(C)nc12 | -0.397 |
| C=CCn1c(O)c(C(CC)=Nc2cc(OC)ccc2OC)c(=O)[nH]c1=O | 2.22 |
| COc1ccc(-c2cc(C(=O)Nc3ccccc3O)c3ccccc3n2)cc1 | 13.1 |
| CC(C)CNC(=O)c1cccc(NC(=O)C(C)C)c1 | 6.64 |
| O=C(NCCc1ccccc1)C(=O)NN=C1CCCC1 | 0.258 |
| COc1cc(/C=C(\C#N)C(=O)Nc2cccc(C(=O)O)c2)ccc1OCc1ccc(Cl)cc1 | 20 |
| COc1ccccc1N1CCN(C2CCCN(C(=O)c3cccc(-c4ccco4)c3)C2)CC1 (stereo not drawn) | -36.1 |
| CCS(=O)(=O)N1Cc2ccccc2CC1C(=O)NCCc1ccccc1 (stereo not drawn) | -15.2 |
| CCNc1nc(NCC)n2c(SC(C(=O)Nc3cc(C)ccc3C)c3ccccc3)nnc2n1 (stereo not drawn) | -1.82 |
| O=C(c1ccc(S(=O)(=O)N2CCOCC2)cc1)N1CCN(S(=O)(=O)c2ccc(Cl)s2)CC1 | -0.782 |
| COc1ccc(NC(=O)C(C/C=C(/C)Cl)C(C)=O)cc1 (stereo not drawn) | -6.29 |
| CC(C)C(NC(=O)c1ccccc1NC(=O)c1ccco1)C(=O)NNC(=O)c1ccncc1 (stereo not drawn) | 5.98 |
| CCOc1ccc(/C=N/NC(=O)c2ccccc2O)cc1CN1CC2CC(C1)c1cccc(=O)n1C2 (stereo not drawn) | -16.7 |
| C=C(C)c1cccc(C(C)(C)NC(=O)NCc2ccncc2)c1 | -9.41 |
| Cc1c(S(=O)(=O)Nc2ccc3c(c2)OCCO3)c(=O)n(C)c(=O)n1C | -10.7 |
| Cc1ccc(Cl)c(OCCN2CCc3ccccc3C2)c1.Cl | -9.17 |
| Cc1cc(C)n(CC(O)Cn2c(C)c(C)c3ccccc32)n1.O=C(O)C(=O)O (stereo not drawn) | 7.14 |
